Measurements as given in article PMC6249397.
No constants are given. Whether binding was seen depends on the method and setting. In cells and extracts the contact can be indirect. Some binding calls cover weakened binding; strength is not graded here. For some assays here: Tags and fused reporters may be left off the sequences shown.

How the values were obtained:
[1] = molecular target: T1, PAQR3 with deletion of N-terminal 1-70 amino acids (UniProt Q6TCH7); assay: co-IP; PAQR3 construct expressed in HEK293T cells; endogenous Sec13 and Sec31A; cell lysate 24 hr after transfection used in IP and IB
T1 sequence: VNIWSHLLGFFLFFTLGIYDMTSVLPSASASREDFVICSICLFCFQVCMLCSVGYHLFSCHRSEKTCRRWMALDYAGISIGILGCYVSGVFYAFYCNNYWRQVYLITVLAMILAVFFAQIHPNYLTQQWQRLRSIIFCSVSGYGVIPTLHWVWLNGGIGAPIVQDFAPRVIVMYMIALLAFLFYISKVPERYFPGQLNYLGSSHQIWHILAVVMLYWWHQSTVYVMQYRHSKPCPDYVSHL

Myc-tagged PAQR3 = molecular target: T2, Myc-tagged PAQR3 (UniProt Q6TCH7); assay: as above
T2 sequence: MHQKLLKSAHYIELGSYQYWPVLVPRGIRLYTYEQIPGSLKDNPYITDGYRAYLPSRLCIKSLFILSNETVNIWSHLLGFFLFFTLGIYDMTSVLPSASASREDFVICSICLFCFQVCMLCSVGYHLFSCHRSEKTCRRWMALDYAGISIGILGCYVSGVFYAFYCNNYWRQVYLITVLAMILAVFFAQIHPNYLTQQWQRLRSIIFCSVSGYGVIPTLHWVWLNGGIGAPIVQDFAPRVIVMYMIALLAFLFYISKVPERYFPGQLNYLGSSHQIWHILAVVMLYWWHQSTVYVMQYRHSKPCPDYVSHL

binding [1]: no binding
binding (Myc-tagged PAQR3): binds
B1: endogenous Sec31A (protein, UniProt O94979 1-1220)
chain: MKLKEVDRTAMQAWSPAQNHPIYLATGTSAQQLDATFSTNASLEIFELDLSDPSLDMKSCATFSSSHRYHKLIWGPYKMDSKGDVSGVLIAGGENGNIILYDPSKIIAGDKEVVIAQNDKHTGPVRALDVNIFQTNLVASGANESEIYIWDLNNFATPMTPGAKTQPPEDISCIAWNRQVQHILASASPSGRATVWDLRKNEPIIKVSDHSNRMHCSGLAWHPDVATQMVLASEDDRLPVIQMWDLRFASSPLRVLENHARGILAIAWSMADPELLLSCGKDAKILCSNPNTGEVLYELPTNTQWCFDIQWCPRNPAVLSAASFDGRISVYSIMGGSTDGLRQKQVDKLSSSFGNLDPFGTGQPLPPLQIPQQTAQHSIVLPLKKPPKWIRRPVGASFSFGGKLVTFENVRMPSHQGAEQQQQQHHVFISQVVTEKEFLSRSDQLQQAVQSQGFINYCQKKIDASQTEFEKNVWSFLKVNFEDDSRGKYLELLGYRKEDLGKKIALALNKVDGANVALKDSDQVAQSDGEESPAAEEQLLGEHIKEEKEESEFLPSSGGTFNISVSGDIDGLITQALLTGNFESAVDLCLHDNRMADAIILAIAGGQELLARTQKKYFAKSQSKITRLITAVVMKNWKEIVESCDLKNWREALAAVLTYAKPDEFSALCDLLGTRLENEGDSLLQTQACLCYICAGNVEKLVACWTKAQDGSHPLSLQDLIEKVVILRKAVQLTQAMDTSTVGVLLAAKMSQYANLLAAQGSIAAALAFLPDNTNQPNIMQLRDRLCRAQGEPVAGHESPKIPYEKQQLPKGRPGPVAGHHQMPRVQTQQYYPHGENPPPPGFIMHGNVNPNAAGQLPTSPGHMHTQVPPYPQPQPYQPAQPYPFGTGGSAMYRPQQPVAPPTSNAYPNTPYISSASSYTGQSQLYAAQHQASSPTSSPATSFPPPPSSGASFQHGGPGAPPSSSAYALPPGTTGTLPAASELPASQRTGPQNGWNDPPALNRVPKKKKMPENFMPPVPITSPIMNPLGDPQSQMLQQQPSAPVPLSSQSSFPQPHLPGGQPFHGVQQPLGQTGMPPSFSKPNIEGAPGAPIGNTFQHVQSLPTKKITKKPIPDEHLILKTTFEDLIQRCLSSATDPQTKRKLDDASKRLEFLYDKLREQTLSPTITSGLHNIARSIETRNYSEGLTMHTHIVSTSNFSETSAFMPVLKVVLTQANKLGV
